Assay results taken from publication PMC4336329 (PLoS ONE, 2015).
The campaign covered roughly 310,000 compounds. About 2,200 (0.71%) showed an effect of 50% or more. The effect is printed as a negative number. This is one part of the list.

Molecular target: human ether-à-go-go-related gene (hERG) potassium channel (human, UniProt Q12809)
Test: primary screen, population patch clamp on CHO cells stably expressing hERG

Chain of human ether-à-go-go-related gene (hERG) potassium channel (Q12809 whole entry, looked up): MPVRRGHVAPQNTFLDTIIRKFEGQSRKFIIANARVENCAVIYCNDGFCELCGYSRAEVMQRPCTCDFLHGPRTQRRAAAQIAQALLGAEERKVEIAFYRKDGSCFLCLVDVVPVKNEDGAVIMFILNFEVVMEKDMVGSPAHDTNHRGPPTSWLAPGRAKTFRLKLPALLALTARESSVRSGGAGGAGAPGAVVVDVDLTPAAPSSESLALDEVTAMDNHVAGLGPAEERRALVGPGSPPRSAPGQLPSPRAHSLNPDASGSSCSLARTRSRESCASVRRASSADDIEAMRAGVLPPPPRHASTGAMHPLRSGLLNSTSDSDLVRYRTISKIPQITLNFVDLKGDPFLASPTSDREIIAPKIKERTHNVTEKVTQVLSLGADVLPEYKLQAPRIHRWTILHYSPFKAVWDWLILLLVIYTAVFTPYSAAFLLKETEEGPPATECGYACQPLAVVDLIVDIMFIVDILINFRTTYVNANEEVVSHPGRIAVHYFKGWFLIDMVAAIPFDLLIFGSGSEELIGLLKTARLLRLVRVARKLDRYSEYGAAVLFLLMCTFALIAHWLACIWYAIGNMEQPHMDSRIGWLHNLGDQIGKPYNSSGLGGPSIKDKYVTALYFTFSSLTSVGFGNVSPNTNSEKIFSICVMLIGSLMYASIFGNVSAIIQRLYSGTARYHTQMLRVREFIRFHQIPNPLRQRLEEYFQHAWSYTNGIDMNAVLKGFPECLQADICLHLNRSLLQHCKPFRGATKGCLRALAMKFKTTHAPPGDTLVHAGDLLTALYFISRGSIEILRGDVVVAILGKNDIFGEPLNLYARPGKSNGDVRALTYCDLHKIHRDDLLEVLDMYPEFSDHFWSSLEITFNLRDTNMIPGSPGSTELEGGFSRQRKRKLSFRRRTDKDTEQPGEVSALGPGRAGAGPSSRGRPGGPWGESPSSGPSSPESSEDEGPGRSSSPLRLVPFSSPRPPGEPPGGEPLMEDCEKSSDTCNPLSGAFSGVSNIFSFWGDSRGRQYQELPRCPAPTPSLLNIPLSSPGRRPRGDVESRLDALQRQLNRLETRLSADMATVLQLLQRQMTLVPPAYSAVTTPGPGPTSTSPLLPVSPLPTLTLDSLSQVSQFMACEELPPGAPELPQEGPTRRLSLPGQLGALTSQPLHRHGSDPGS

SMILES	hERG current change (%, negative = inhibition) at 1uM [%]
Cc1ccc(N(CC(=O)N=Nc2c(O)[nH]c3ccccc23)S(C)(=O)=O)c(C)c1	-1.47
COC(=O)C(NC(=O)c1cccnc1Cl)C(C)C (stereo not shown)	7.42
Cc1ccc(S(=O)(=O)NC(C)(C)CSc2nnc(Nc3ccccc3)s2)cc1	4.5
Cc1noc(/C=C/c2ccco2)c1S(=O)(=O)N1CCC(C(=O)Nc2ccc(Cl)cn2)CC1	7.96
CC(C)[C@H](N)c1cn([C@@H](CC(N)=O)C(=O)N2CCNCC2)nn1	10.2
Cc1ccc(CCNC(=O)CCS(=O)(=O)c2cc3c(cc2C)NC(=O)CO3)cc1	4.09
COCCn1c(CCc2ccccc2)n[nH]c1=S	10.6
CCOC(=O)c1ccc(Nc2nc(N)c3cc(OC)c(OC)cc3n2)cc1	-0.23
O=C(NC1CCN(C(=O)Nc2ccc(F)cc2)CC1)c1ccccc1F	9.2
CCOCCCNC(=O)c1cc(Sc2ccc(C)cc2)nc2ccccc12	7.78
CCCn1c(NC(=O)CSCC(=O)Nc2cc(C)on2)nc2ccccc21	18.4
COc1ccc(-c2nnnn2-c2ccccc2OC)cc1	-8.21
CSc1nc(=S)n(-c2ccccc2)c(C)c1C(C)=O	10.3
Cc1noc(C)c1CSc1nnc2ccccn12	7.93
Cc1ccsc1-c1nc(CN2CCCC2c2ccc(F)cc2)c(C)o1 (stereo not shown)	11.6
CC(C)CN(C(=O)CN1CCN(c2cccc(Cl)c2)CC1)c1c(N)n(CC(C)C)c(=O)[nH]c1=O	13.7
Cc1cc(C)nc(N2C(=O)CC(Cc3ccccc3)C2=O)n1 (stereo not shown)	16.5
CCC(=O)N1CCc2cc(Br)cc(S(=O)(=O)CCC(=O)N(CC)CC)c21	9.07
Cc1nc(N2CCc3ccccc3C2)[nH]c(=O)c1Cc1ccccc1	10.5
CC1=NN(C(=O)c2cccnc2)C(O)(C(F)(F)F)C1 (stereo not shown)	5.67
CC(C)Oc1ccc(NC(=O)c2ccncc2)cc1	8.51
Nc1nc(NCC2CCCO2)nc(Nc2ccccc2F)c1[N+](=O)[O-] (stereo not shown)	16.4

SMILES	hERG current change (%, negative = inhibition) at 1uM [%]
CC1CCCCN1Cc1nc2c(c(=O)n(C)c(=O)n2C)n1Cc1c(F)cccc1Cl (stereo not shown)	11.4
O=[N+]([O-])c1ccc(Cl)c([N+](=O)[O-])c1	0.507
Cc1cc(S(=O)(=O)NCc2ccc(S(N)(=O)=O)cc2)c(C)s1	11
O=S(=O)(c1ccc2c(c1)OCCO2)N1CCC(n2nnc3cc(F)ccc32)CC1	-0.696
Cc1cccc(OCC(=O)NCC(=O)N/N=C/c2ccccc2)c1	10.4
Cc1cccc(Cn2c(=O)c3c(nc4n3CCN4Cc3ccco3)n(C)c2=O)c1	-5.64
COc1ccc(CCNC(=O)c2ccc(CS(=O)(=O)Cc3cccc(C)c3)o2)cc1OC	8.68
CN(C)c1nc(Oc2ccc(N)cc2)nc(N(C)C)n1	4.54
Cc1cc(N)nc(SCC(=O)N2C(C)CCCC2C)n1 (stereo not shown)	10.2
CCOc1ccc(C2=Nn3c(nnc3-c3ccc(OC)cc3)SC2)cc1	1.06
CCSc1ccc([C@@H]2[C@H]3C(=O)N(C)C(=O)[C@H]3[C@]3(C(=O)OC)CCCCN23)cc1.O=C(O)C(F)(F)F	14.2
CCSC1=C(C#N)C(CC(C)C)C2=C(CCCC2=O)N1 (stereo not shown)	15.5
O=C(Cn1ccc(=O)[nH]c1=O)Nc1ccc(C(=O)O)c(O)c1	16
Cc1nn(C)c(Cl)c1CN1CCC(Oc2ccc(C(=O)N3CCCC3)cc2)CC1	14.2
CC(C)Oc1ccccc1OCCCCn1cnc2ccccc2c1=O	-0.415
O=C(COc1ccccc1)NCC(c1ccco1)N1CCCCC1 (stereo not shown)	2.74
NC(=O)C1CCN(C(=O)COCc2cc(-c3ccc4c(c3)OCO4)on2)CC1	11.1
CC(CCc1ccccc1)NC(=O)COC(=O)C1CCC(C(C)(C)C)CC1 (stereo not shown)	17
CCOC(=O)Cc1cc(=O)n2[nH]c(C(C)(C)C)cc2n1	9.12
Cc1c(N)cccc1N	7.39
COc1ccc2cc(/C(C)=N/NC(=O)C3CC3)ccc2c1	3.73
O=S(=O)(c1ccccc1)N1CCN(C(=S)Nc2ccc(F)cc2)CC1	10.1

SMILES	hERG current change (%, negative = inhibition) at 1uM [%]
Cc1ccc(NC(=O)Cn2c(=O)n(CCCCC(=O)NCc3ccco3)c(=O)c3ccccc32)cc1	2.83
Cc1cc(C)c(C#N)c(SCc2[nH]nc3c2C(c2ccccc2)C(C#N)=C(N)O3)n1 (stereo not shown)	4.23
CC(O)Cn1ccccc1=N (stereo not shown)	8.16
Cc1ccc(C(c2nnnn2CCc2ccccc2)N2CCC(C)CC2)cc1.Cl (stereo not shown)	14.8
O=C(c1ccc2ccccc2c1)C1CCCN(C(=O)CN2C(=O)CSC2=O)C1 (stereo not shown)	-7.59
O=C(Cn1nnc2ccccc2c1=O)NCCc1ccccc1	-4.29
O=C(Nc1cccc(Br)c1)c1cc(=O)c2ccccc2o1	18.6
CN(C)CCNC(=O)/C=C/c1cn(-c2ccccc2)nc1-c1cc2ccccc2oc1=O	4.97
CCn1c(SCC(=O)NCc2ccc(F)cc2)nc2c(c1=O)SC(C)C2 (stereo not shown)	-10.2
Cc1cc(NC(=O)CCC(=O)N(CC(=O)NCC2CCCO2)c2ccc(C(C)C)cc2)no1 (stereo not shown)	9.38
CCCCNC(=O)[C@@H]1CC=C[C@@H]2CCN(Cc3ccc(Cl)c(Cl)c3)C(=O)[C@@H]21	3.92
Nc1ccc(-c2nc3ccc(N)cc3o2)cc1	15.7
O=C(Nc1nnc(-c2ccc(F)cc2)s1)Nc1ccccc1F	11.9
Cc1ccc(S(=O)(=O)N(C)C)cc1NC(=S)N1CCN(Cc2ccc3c(c2)OCO3)CC1	7.23
Cn1nc(C(F)(F)F)c(C(=O)Nc2ccc(F)cc2F)c1Sc1ccc(Cl)cc1	6.25
CCC(C(=O)Oc1c(C(C)C)cccc1C(C)C)c1ccccc1 (stereo not shown)	-0.176
COc1ccc(N=C2S/C(=C\c3cc(C)n(C)c3C)C(=O)N2CC(C)C)cc1	3.13
CCc1nnc(NS(=O)(=O)c2ccc(NC(=O)c3cccc(OC(F)(F)C(F)F)c3)cc2)s1	-0.458
CC1CCCC(C)N1S(=O)(=O)c1ccc(NC(=O)c2ccccc2C(=O)N2CCOCC2)cc1 (stereo not shown)	7.16
Cc1ccsc1C(=O)OCc1cc(=O)n2ccsc2n1	4.61
O=C(Nc1ccccc1)c1ccc(S(=O)(=O)NCc2cccnc2)cc1	14.8
CC(=O)N(Cc1cccs1)C1CCOC(C)(C)C1 (stereo not shown)	7.46

SMILES	hERG current change (%, negative = inhibition) at 1uM [%]
COc1cc2nc(CC(C)C)n(NC(=O)c3ccccc3)c(=O)c2cc1OC	10.5
COc1cccc(-c2csc(NC(=O)Nc3ccccc3)n2)c1	11.4
O=C(Nc1ccccc1)N1CCCN(c2c(Cl)cncc2Cl)CC1	11.7
CCOC(=O)COn1c(-c2cccc(Cl)c2)nc2ccc([N+](=O)[O-])cc21	14.9
O=C(CSc1nnc(-c2ccncc2)n1-c1ccccc1Cl)Nc1ccc(C(=O)O)cc1	23.2
COc1cccc2cc(C(=O)N(Cc3ccccc3)CC3CCCO3)c(=O)oc12 (stereo not shown)	6.91
COc1ccc(NC(=O)CSc2nnc(-c3ccc(F)cc3)o2)cn1	-5.69
c1cc2c(cc1Nc1nc(-c3ccc4c(c3)OCO4)cs1)OCCO2	12.2
Cc1csc(NC(=O)CCCSc2nc3ccccc3s2)n1	-2.7
O=C(c1cc(COc2cccc3cnccc23)on1)N1CCC(c2ccccc2Cl)C1 (stereo not shown)	16.8
COc1ccc(C2C(C(=O)Nc3cc(OC)c(OC)c(OC)c3)c3ccccc3C(=O)N2C)cc1 (stereo not shown)	16.1
COc1ccccc1-c1csc(NC(=O)c2ccc(N3C(=O)CCC3=O)cc2)n1	5.85
COC(=O)Cn1c2c(c3cc(C)ccc31)CCCC2NC(C)c1ccccc1 (stereo not shown)	13.8
O=C1COc2ccccc2N1Cc1c(F)cccc1Cl	1.77
O=C(CCl)Nc1cccc(Oc2ccccc2)c1	9.63
Cc1ccc(N(CC(=O)N/N=C/c2ccc(OC3CSC3)cc2)S(=O)(=O)c2ccccc2)c(C)c1	14.7
COc1ccc(OC)c2sc(NC(=O)CCSc3ccccc3)nc12	15.3
COc1ccc(Cn2nnnc2C(C(C)C)N(Cc2ccco2)Cc2cccs2)cc1 (stereo not shown)	13
CN(CC(=O)NCc1ccc2c(c1)OCO2)S(=O)(=O)c1ccc(F)cc1	4.04
Cc1ccc(S(=O)(=O)C(NC(=O)c2ccccc2)=C(Cl)Cl)cc1	9.53
N#Cc1nc(COc2ccc(F)cc2)oc1NCCN1CCOCC1	6.6
CC1CCCCN1CC(=O)NC(c1ccccc1)c1ccccc1.O=C(O)C(=O)O (stereo not shown)	-29.9
